# Experimental data published in US20230272055A1, “ANTI-MUTANT CALRETICULIN (CALR) ANTIBODIES AND USES THEREOF” (Incyte Corporation, priority 2021, published 2023).
# Changes are numbered by the printed parent chain.
# B1: 139 (antibody)
# heavy: EVQLVQSGAEVKKPGASVKVSCKVSGYTLTELSMQWVRQAPGKGLEWMGGFDPDDGETMYAEKFQGRLTVTEDTSTDTVYMELSSLRSEDTAVYFCATSPGYDFFDYWGQGTLVTVSSASTKGPSVFPLAPSSKSTSGGTAALGCLVKDYFPEPVTVSWNSGALTSGVHTFPAVLQSSGLYSLSSVVTVPSSSLGTQTYICNVNHKPSNTKVDKRV[omitted - human IgG1 Fc with changes]
# light: SYVLTQPPSVSVAPGKTARITCGGDNIGSKSVHWYQQKPGQAPVLVVYDDSDRPSGIPERFSGSNSGNTATLTISRVEAGDEADYYCQVWDSSNDLLIFGGGTKLTVLGQPKAAPSVTLFPPSSEELQANKATLVCLISDFYPGAVTVAWKADSSPVKAGVETTTPSKQSNNKYAASSYLSLTPEQWKSHRSYSCQVTHEGSTVEKTVAPTECS
# B2: 59 (antibody)
# heavy: EVQLVQSGAEVKKPGASVKVSCKVSGYTLTELSMQWVRQAPGKGLEWMGGFDPDDAETMYAEKFQGRLTVTEDTSTDTVYMELRSLTSEDTALYFCATSPGYDFFDYWGQGTLVTVSSASTKGPSVFPLAPSSKSTSGGTAALGCLVKDYFPEPVTVSWNSGALTSGVHTFPAVLQSSGLYSLSSVVTVPSSSLGTQTYICNVNHKPSNTKVDKRV[omitted - human IgG1 Fc with changes]
# light: QSALTQPASVSGSPGQSITISCTGTSSDVGGYNYVSWYQQHPGKAPKLMIYEVSNRPSGVSNRFSGSNSGNTATLTINRVEAGDEADYYCQVWDSSNDLLIFGGGTKLTVLGQPKAAPSVTLFPPSSEELQANKATLVCLISDFYPGAVTVAWKADSSPVKAGVETTTPSKQSNNKYAASSYLSLTPEQWKSHRSYSCQVTHEGSTVEKTVAPTECS
# B3: 67 (antibody)
# heavy: EVQLVQSGAEVKKPGASVKVSCKVSGYTLTELSMQWVRQAPGKGLEWMGGFDPDSGETMYAEKFQGRLTVTEDTSTDTVYMELRSLTSEDTALYFCATSPGYDFFDYWGQGTLVTVSSASTKGPSVFPLAPSSKSTSGGTAALGCLVKDYFPEPVTVSWNSGALTSGVHTFPAVLQSSGLYSLSSVVTVPSSSLGTQTYICNVNHKPSNTKVDKRV[omitted - human IgG1 Fc with changes]
# light: SYVLTQPPSVSVAPGKTARITCTGTSSDVGGYNYVSWYQQKPGQAPVLVVYEVSNRPSGIPERFSGSNSGNTATLTISRVEAGDEADYYCQVWDSSNDLLIFGGGTKLTVLGQPKAAPSVTLFPPSSEELQANKATLVCLISDFYPGAVTVAWKADSSPVKAGVETTTPSKQSNNKYAASSYLSLTPEQWKSHRSYSCQVTHEGSTVEKTVAPTECS
# B4: 126 (antibody)
# heavy: EVQLVQSGAEVKKPGASVKVSCKVSGYTLTELSMQWVRQAPGKGLEWMGGFDPDSGETMYAEKFQGRLTVTEDTSTDTVYMELRSLTSEDTALYFCATSPGYDFFDYWGQGTLVTVSSASTKGPSVFPLAPSSKSTSGGTAALGCLVKDYFPEPVTVSWNSGALTSGVHTFPAVLQSSGLYSLSSVVTVPSSSLGTQTYICNVNHKPSNTKVDKRV[omitted - human IgG1 Fc with changes]
# light: B1 light with V3E, S75N
# B5: 185 (antibody)
# heavy: EVQLVQSGAEVKKPGASVKVSCKVSGYTLTELSMQWVRQAPGKGLEWMGGFDPDDGETMYAEKFQGRLTVTEDTSTDTVYMELSSLRSEDTAVYFCATSPGYDFFDYWGQGTLVTVSSASTKGPSVFPLAPSSKSTSGGTAALGCLVKDYFPEPVTVSWNSGALTSGVHTFPAVLQSSGLYSLSSVVTVPSSSLGTQTYICNVNHKPSNTKVDKRV[omitted - human IgG1 Fc with changes]
# light: B1 light with K16Q, D25S, N26D, S29D, K30E, S31I, N94S, L96H
# B6: 129 (antibody)
# heavy: EVQLVQSGAEVKKPGASVKVSCKVSGYTLTELSMQWVRQAPGKGLEWMGGFDPDDGETMYAEKFQGRLTVTEDTSTDTVYMELSSLRSEDTAVYFCATSPGYDFFDYWGQGTLVTVSSASTKGPSVFPLAPSSKSTSGGTAALGCLVKDYFPEPVTVSWNSGALTSGVHTFPAVLQSSGLYSLSSVVTVPSSSLGTQTYICNVNHKPSNTKVDKRV[omitted - human IgG1 Fc with changes]
# light: B1 light with V3E, S75N
# B7: 57 (antibody)
# heavy: EVQLVQSGAEVKKPGASVKVSCKVSGYTLTELSMQWVRQAPGKGLEWMGGFDPDSGETMYAEKFQGRLTVTEDTSTDTVYMELRSLTSEDTALYFCATSPGYDFFDYWGQGTLVTVSSASTKGPSVFPLAPSSKSTSGGTAALGCLVKDYFPEPVTVSWNSGALTSGVHTFPAVLQSSGLYSLSSVVTVPSSSLGTQTYICNVNHKPSNTKVDKRV[omitted - human IgG1 Fc with changes]
# light: B2 light
# B8: 42 (antibody)
# heavy: EVQLVQSGAEVKKPGASVKVSCKVSGYTLTELSMHWVRQAPGKGLEWMGLVDPEDGETIYAQKFQGRVTMTEDTSTDTAYMELSSLRSEDTAVYYCAREEWSGDGDDAFDIWGQGTMVTVSSASTKGPSVFPLAPSSKSTSGGTAALGCLVKDYFPEPVTVSWNSGALTSGVHTFPAVLQSSGLYSLSSVVTVPSSSLGTQTYICNVNHKPSNTKVDKRV[omitted - human IgG1 Fc]
# light: QSVLTQPPSVSAAPGQKVTISCSGSSSNIGSYSVSWYQQLPGTAPKLLIYDDNKRPSGIPDRFSGSNSGTSATLSITGLQTGDEADYYCGTWDSSLSAWVFGGGTKLTVLGQPKAAPSVTLFPPSSEELQANKATLVCLISDFYPGAVTVAWKADSSPVKAGVETTTPSKQSNNKYAASSYLSLTPEQWKSHRSYSCQVTHEGSTVEKTVAPTECS
# Molecular target: T1, recombinant MBP-mutCALR Type 1 fusion protein (Homo sapiens, UniProt P27797, DEL40-40)
# T1 construct: His6 (N); purchased Cepter (cepterbiopartners.com), custom made
# Test: Biacore SPR binding kinetics, Experiment 2 (parental and variant antibodies)
# Settings: Biacore 8K, 25° C., 1:1 binding model
# Method: (§1) The amino acid sequence of recombinant MBP-mutCALR Type 1 fusion protein used in Experiments 1 and 2 is:
# Experiment 2: Recombinant MBP-mutCALR Type 1 fusion protein was custom made at Cepter (cepterbiopartners.com). Data for the interaction of antibodies with recombinant mutCALR protein were collected at 25° C. on a Biacore 8K instrument (Cytiva, Marlborough, Mass.), and all reagents were obtained from Cytiva unless otherwise specified. The experiments were conducted using Tris-buffered saline (pH 7.2), 0.005% Surfactant P20, 1 mM CaCl2) as running buffer. To prepare the capture surfaces, anti-human IgG (Fc) antibodies (Product #29234600) was amine-coupled onto a CM4 chip (Product #BR100534) under standard conditions using an Amine Coupling Kit (Product #BR100050). Anti-mutCALR antibodies were captured onto the chip surface by injecting over flow cell 2 only at a flow rate of 10 μL/min for 30 seconds. […] Recombinant MBP-mutCALR Type 1 fusion protein was prepared at nominal concentrations of 0, 0.75, 2.22, 6.67, 20, and 60 nM and injected over both flow cells 1 and 2 for 150 seconds at a flow rate of 69 L/min, followed by a 230-second dissociation phase at the same flow rate. The kinetics parameters were obtained by applying 1:1 binding model to fit the data from multiple-cycle injection experiments using Biacore Insight Evaluation software.
ka,kd,Molecule
987000 M⁻¹ s⁻¹,0.000953 s⁻¹,B1
945000 M⁻¹ s⁻¹,0.00136 s⁻¹,B2
3.05e+06 M⁻¹ s⁻¹,0.0102 s⁻¹,B3
1.29e+06 M⁻¹ s⁻¹,0.00153 s⁻¹,B4
5.32e+06 M⁻¹ s⁻¹,0.000911 s⁻¹,B5
9.94e+06 M⁻¹ s⁻¹,0.00527 s⁻¹,B6
6.12e+06 M⁻¹ s⁻¹,0.0039 s⁻¹,B7

# Molecular target: T1, recombinant MBP-mutCALR Type 1 fusion protein
# Test: Biacore SPR binding kinetics, Experiment 1
# Settings: Biacore 8K, 25° C., 1:1 binding model
# Method: as §1
# Experiment 1: Recombinant MBP-mutCALR Type 1 fusion protein was custom made at Cepter (cepterbiopartners.com). Data for the interaction of antibodies with recombinant MBP-mutCALR Type 1 fusion protein were collected at 25° C. on a Biacore 8K instrument (Cytiva, Marlborough, Mass.), and all reagents were obtained from Cytiva unless otherwise specified. The experiments were conducted using Tris-buffered saline (pH 7.2), 0.005% Surfactant P20, 1 mM CaCl2) as running buffer. To prepare the capture surfaces, anti-human IgG (Fc) antibodies (Product #29234600) was amine-coupled onto a CM4 chip (Product #BR100534) under standard conditions using an Amine Coupling Kit (Product #BR100050). Anti-mutCALR antibodies were captured onto the chip surface by injecting over flow cell 2 only at a flow rate of 30 μL/min for 30 seconds. […] The kinetics parameters were obtained by applying 1:1 binding model to fit the data from multiple-cycle injection experiments using Biacore Insight Evaluation software.
ka,kd,Molecule
649000 M⁻¹ s⁻¹,0.00452 s⁻¹,B8
